The values below come from patent publication US20070248536A1 (SCIL PROTEINS, published 2007).

In this experiment the target is T1, human wildtype ubiquitin (human, UniProt P0CG48 partial chain).
T1 construct: Scaffold control; also called Ubiquitin wildtype
In words: concentration-dependent ELISA, detection with anti-ubiquitin antiserum. On the technique in general: In an ELISA, binding on a coated surface is turned into a signal by an enzyme label.

B1: human NGF (ligand)
chain: not shown
notes: also called a growth factor from the family of cysteine knot proteins
Turning to B1, the binding result was “no binding”.
